# Test results reported in PubChem BioAssay AID1347073 (National Center for Advancing Translational Sciences (NCATS), 2019).
# In all, about 45,000 compounds went through this assay and about 200 (0.44%) were called active. About 7% were inconclusive and are not listed. The call rests on the fitted dose curve; in most records, active means well fitted activation curve with a large enough effect; inconclusive means small, poorly fitted or top-dose-only effect; inactive means no such curve, though single readings can be large or run the other way. Some of the results follow.
# Test: qHTS of TDP-43 Inhibitors: NCGC Sytravon Library Screen; further: 0% is about no effect; nearly all actives have a fitted effect of over 55% in size
# Conditions: yeast TDP-43 toxicity rescue, BacTiter-Glo growth, 24 h; series mostly up to 46.1 µM; growth rescue (activation): at the top concentration
# Procedure, shortened: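 TDP-43-expressing yeast, pregrown in raffinose, seeded at OD600 0.02 in galactose medium with compound for 24 hr at 30 deg C. Growth read by BacTiter-Glo luminescence, so rescue of toxicity appears as activation.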
row,Compound,growth rescue (activation)
1,COc1ccc([N+](=O)[O-])cc1NCC(=O)c1ccc(C)cc1,inactive: -10%
2,CCN(CC)CCCn1c(C)cc2c(c1=O)C(c1cccc(Cl)c1)C(C#N)=C(N)O2 (stereo not drawn),inactive: -8.7%
3,COC(=O)c1ccc(/C=C/C(=O)OCC(=O)NCc2cccs2)cc1,inactive: 2.06%
4,CN(C)/C=C(/C(=O)c1ccc(F)cc1)S(=O)(=O)c1ccc(F)cc1,inactive: 11.1%
5,Cc1ccc(NC(=O)CCS(=O)(=O)c2cccc3nonc23)cc1Cl,inactive: -6.97%
6,O=C(O)/C=C/c1cn(-c2ccccc2)nc1-c1cc2ccccc2o1,inactive: -18.3%
7,C=CCn1c(C(C)(C)C)nc2ccccc21,inactive: 3%
8,O=C(Nc1nn[nH]n1)c1ccc(S(=O)(=O)N2CCCCC2)cc1,inactive: 11.2%
9,COc1cccc(-c2cnc3cccnn23)c1,inactive: 29.2%
10,CCNC(=O)N1CCCC(C(=O)c2ccc(OC)c(OC)c2)C1 (stereo not drawn),inactive: 1.65%
11,CCc1nc2c(OCc3ccc(F)cc3)cccn2c1N(C)C(=O)c1ccncc1,inactive: 16.2%
12,N#Cc1nc(-c2ccc(OCc3ccccc3)cc2)oc1N1CCC(C(N)=O)CC1,inactive: 16.7%
13,COCCN(C(=O)c1csnn1)C(C(=O)NC1CCCC1)c1ccccc1 (stereo not drawn),inactive: -7.83%
14,COc1ccc(C(=O)N2c3ccccc3C(C)(c3ccc(Cl)cc3)CC2(C)C)cc1 (stereo not drawn),inactive: 4.02%
15,CCOC(=O)/C(C#N)=C/c1c(N2CCN(Cc3ccc4c(c3)OCO4)CC2)nc2c(C)cccn2c1=O,inactive: -10.1%
16,O=C(Nc1nc2ccc(F)cc2s1)Oc1ccccc1,inactive: -15.8%
17,c1ccc(CNc2nc(NCc3cccs3)nc3ccsc23)cc1,inactive: 4.57%
18,Cc1occc1-c1nnc(SCC(=O)N2CCCc3ccccc32)n1Cc1ccco1,inactive: 24.9%
19,Cc1c(Cl)cccc1NC(=O)CCC(=O)NNC(=O)c1ccccc1,inactive: 7.32%
20,COc1ccc(NC2CCCN(C(=O)CCC(=O)c3ccc(F)cc3)C2)cc1 (stereo not drawn),inactive: 2.55%
21,CCOCCCNC(=O)CCc1nnc2n(CCC(C)C)c(=O)c3ccccc3n12,inactive: -0.496%
22,COc1ccc(C(=O)Nc2cc(Cl)ccc2N2CCOCC2)cc1S(=O)(=O)N1CCOCC1,inactive: 2.18%
23,Cc1cc(C)n(-c2cccc(CN3CCC(CO)(Cc4ccccc4)CC3)c2)n1,inactive: 0.166%
24,COc1cccc(CC2(CO)CCN(Cc3cnc(N4CCOCC4)s3)CC2)c1,inactive: 3.48%
25,O=C(CSc1nc2nc(-c3cccs3)cc(C(F)(F)F)c2c(=O)[nH]1)NCc1ccco1,inactive: 5.25%
26,Cc1nc2ccc(NC(=O)c3cccc(S(=O)(=O)N4CCOCC4)c3)cc2s1,inactive: 9.06%
27,CCc1cccc(NC(=O)CC2SC(N3CCCC3)=NC2=O)c1 (stereo not drawn),inactive: 17.7%

row,Compound,growth rescue (activation)
1,O=C(CCn1cccc1)NCCc1ccc(Cl)cc1,inactive: 28.6%
2,O=[N+]([O-])c1cc2c(cc1Br)CCN2,inactive: 4.23%
3,C/C(=N\Nc1ccc(Cl)nn1)c1ccccc1O,inactive: -2.7%
4,CN(Cc1c(C(=O)N2CCc3ccccc3C2)nc2ccc(Cl)cn12)C(C1CC1)C1CC1,inactive: 4.65%
5,O=C(COC(=O)c1cccnc1Cl)NC(=O)NC1CCCCC1,inactive: -3.29%
6,O=C(Cn1c(=O)oc2ccccc21)Nc1ccc(C(=O)O)cc1,inactive: 7.13%
7,CC1CC(C)CN(S(=O)(=O)CC23CCC(CC2=O)C3(C)C)C1 (stereo not drawn),inactive: 13.5%
8,CCOC(=O)Nc1ccc2c(COC(=O)c3ccccc3O)cc(=O)oc2c1,inactive: -2.96%
9,O=C1CN(S(=O)(=O)c2ccccc2)CCN1,inactive: -0.832%
10,COc1ccc(Cn2c(C(=O)O)c(CNCc3ccccc3F)c3ccc(OC)cc32)cc1,inactive: 8.33%
11,CCCSc1ncc(Cl)c(C(=O)Nc2ccc(S(=O)(=O)N(C)c3ccccc3)cc2)n1,inactive: 12.5%
12,Cn1ccnc1SCC(=O)c1c[nH]c2ccccc12,inactive: 1.8%
13,CCOc1ccccc1-c1nc(CN2CCCN(C(=O)c3ccco3)CC2)c(C)o1,inactive: 20.5%
14,COc1ccc(-c2[nH]ncc2CN2CCC(OCc3ccccc3)CC2)c(F)c1,inactive: 11.5%
15,O=C(CCS(=O)(=O)c1ccc(Br)s1)Nc1ccccc1Br,inactive: 22%
16,CC(=O)c1ccc(NC(=O)COC(=O)c2ccccc2Nc2ccccc2)cc1,inactive: -19.9%
17,Cc1cc(-c2nc3c4c5c(sc4[nH]c(=O)n3n2)CCC5)c(C)o1,inactive: 27.3%
18,Cn1c(-c2cc3c(C(F)(F)F)nn(C)c3s2)n[nH]c1=S,inactive: 2.93%
19,COc1cccc(NC(=O)C2(C)CCN2CC2CCCCC2)c1 (stereo not drawn),inactive: 12.6%
20,Cc1occc1C(=O)NC(C)CCc1ccccc1 (stereo not drawn),inactive: -38.1%
21,COc1ccc(NS(=O)(=O)c2cc(NC(=O)C3CCCO3)ccc2N2CCCC2)cc1 (stereo not drawn),inactive: 15.6%
22,O=C1N/C(=N\N=C\c2cccs2)SC1Cc1cccc(Cl)c1Cl (stereo not drawn),inactive: -11.9%
23,CCOC(=O)Nc1ccc(OC)c([N+](=O)[O-])c1,inactive: 17.2%
24,CCOC(=O)C(=NCCCN(C)C)NNc1cc(C(F)(F)F)ccc1Cl,inactive: 7.79%
25,CCC(=O)N1CCC1(C)C(=O)Nc1ccc(Cl)c(Cl)c1 (stereo not drawn),inactive: 13.9%
26,CC(C)CCNC(=O)C1CCC(CNc2c(N3CCCC3)c(=O)c2=O)CC1 (stereo not drawn),inactive: 1.11%
